Laboratory results as given in the supplement of paper PMC5499739.
The full ranking holds about 16,000 sequences; the median of “Z-score” is about -0.37, and the highest 2% start at about 3.2. Some of the results follow.

test system: RBM10 RRM1-ZnF (GST-tagged construct); assay: RNAcompete 7-mer binding Z-score; higher = stronger binding preference
Method: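 RNAcompete: 20 pmol GST-tagged RBM10 RNA-binding constructs were incubated with a designed RNA pool of about 241,000 sequences up to 41 nt (1.5 nmol) on glutathione beads for 30 min at 4 °C and washed. Bound RNAs were identified by microarray hybridisation. Each RNA 7-mer is scored by a one-sided Z-score of its enrichment, computed over probes that contain the 7-mer within longer pool sequences.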

Sequence	RNAcompete 7-mer binding Z-score
CGCACUA	-0.597
UGCAGCG	0.3
CCGAUAC	-0.668
CGCAAAA	-0.535
CAUAAUC	-0.88
CCAGGCC	-0.756
GGGGUUA	3.21
CGUGUCC	-0.691
CUGUGGA	0.92
UAGGGUC	1.55
UCGGGAA	1.33
CCGCAAC	-0.633
UCGCUAA	-0.591
UCCCGGA	-0.399
CAUGGGG	2.42
GAAUUCU	-0.691
GAAAUCC	-0.717
GGGUACG	2.79
ACCAGAG	-0.129
GGACCCU	-0.288
CCCGAUC	-0.701
AGGAUCC	-0.34
UAGCAGA	0.469
ACGGGAA	3.12
AACAGGA	1.52

Sequence	RNAcompete 7-mer binding Z-score
CGCCUAA	-0.694
GCGGCGU	0.881
ACCCGUU	-0.87
CUCCCUA	-0.665
GCCAGUU	-0.753
UCUAGCG	-0.548
CCCGCAG	-0.214
UGCACUU	-0.639
GGGUGAG	4.36
CAUGAUA	-0.165
UUUAAUC	-0.802
CGACCUA	-0.733
CCGCUAG	-0.418
ACCGGUG	0.439
AAGGGUU	4.07
CUCCGGU	-0.467
CGUUUAA	-0.714
GUGCUGC	0.0463
AUCUCUA	-0.795
UCUGAAA	-0.513
GUAAUGU	0.621
UUAGGAU	1.1
ACAAAGA	-0.184
CACCCCU	-0.431
CAGAGAG	0.709

Sequence	RNAcompete 7-mer binding Z-score
AUACAAU	-0.539
CGCUCGG	-0.178
UGUGGCG	1.12
CUCAGAU	-0.565
UCCCUUC	-0.571
CUAGGGA	1.69
UAAACUC	-0.72
AGGAUAA	1.16
UCAGCCU	-0.815
GGUCGCG	0.803
GUUAUCU	-0.47
UGCUGUU	-0.571
AGUCCUU	-0.792
CGAGUUU	-0.513
CAAAACC	-0.704
AUUGCAA	-0.405
UUAGAGA	0.147
CAGGCUU	-0.256
AGGUACU	0.102
GCGCGUC	-0.197
GAUCUGG	0.261
GCAAGAC	-0.155
UUGCAAA	-0.321
AAGCUCA	-0.691
UGCCGCC	-0.415

Sequence	RNAcompete 7-mer binding Z-score
UGCUCUG	-0.678
UCCGCUC	-0.694
AGGAAGA	1.7
AUUUGUC	-0.737
CUAAUCA	-0.539
UUGCCGA	-0.561
CGGGGGA	3.17
AUCGCAU	-0.396
UAAAAGG	1.52
CUGUAUC	-0.649
UAUUGCU	-0.772
CCUGAUC	-0.792
UCAGGCA	0.355
GCCCAUG	-0.552
CUUCUGC	-0.87
UCACAAG	-0.428
AUACUUA	-0.435
UUACACA	-0.62
UUAUACG	-0.6
UAGAUAU	-0.272
UAUUGGA	0.615
CGGUAAC	0.189
CCGUGAA	-0.646
UAGCUUA	-0.617
AACAAUA	-0.266

Sequence	RNAcompete 7-mer binding Z-score
GUCAAUU	-0.662
CGGGGUC	2.14
AGCAUUU	-0.759
AUGGGCC	0.907
GUUCACA	-0.529
UCACCUG	-0.617
CGCACCC	-0.47
GGGCGGG	3.66
ACACUAG	-0.337
GGUGAGA	2.57
UUCCUUU	-0.841
UCCGUGU	-0.701
GAACUUU	-0.698
UUGCUAG	-0.337
CGUACCC	-0.662
UCAUCGG	-0.106
CCAUCAU	-0.815
AAUGUAC	0.0593
GCGAAUC	-0.256
GUUCGGG	1.57
UACGACU	-0.665
GAGCCCC	-0.275
UGUCCAU	-0.659
UUACAAU	-0.383
CACGUUA	-0.357

Sequence	RNAcompete 7-mer binding Z-score
AUCCGCA	-0.802
CGUGUAA	-0.233
AGGCGAA	0.865
UUGUCUG	-0.61
UAAACGU	-0.444
GGACGUG	2.12
CUCGUGG	0.488
GUGUAGC	0.452
AGUACUG	-0.0999
UUGGAAC	0.599
UUAACCG	-0.633
CUGUAAC	-0.694
GGAUACC	0.485
GCAUCUA	-0.464
AAUCAUG	-0.171
UAUAGGA	1.25
AAAACCA	-0.542
GAACAAU	-0.0609
UUAAUCG	-0.422
GAGUGCA	0.563
GGAGCGC	1.27
AAACGUG	0.361
CUAACGA	-0.578
UAAGUCG	-0.373
AUUAAGU	-0.217

Sequence	RNAcompete 7-mer binding Z-score
CCUCCUU	-0.818
UUAUCGG	-0.171
GUUUCUU	-0.542
ACAAUAA	-0.49
AAAGGAG	3.8
AGCGUGG	2.32
GGAUUUC	0.00404
ACAGUCC	-0.73
AGGAGUC	0.556
AGCGCUG	0.0593
CUCAGGC	-0.126
UUUAUCA	-0.756
CAACCGC	-0.828
GAAUGUC	-0.301
UCCAGUU	-0.639
UUUAGUU	-0.448
UUAGAUA	-0.383
ACGAUUU	-0.711
UGACGGA	1.07
AUUUUGU	-0.629
GGGUUUC	1.95
CAACCGG	-0.415
GUUUCCC	-0.376
UUCGCGA	-0.61
UUCCCGG	-0.743

Sequence	RNAcompete 7-mer binding Z-score
CGGAUAA	0.631
UCAGUAU	-0.409
CCCAGAA	-0.717
UAGUAGG	1.67
UAGUAUA	-0.116
CCUCGUG	-0.584
UUCCGAA	-0.62
AACGCAU	-0.493
CGAGCUC	-0.552
CUGUUCG	-0.591
UUUGCGC	-0.815
GGGACGA	2.11
AGGUCCA	-0.483
AAGCUAA	-0.337
CAAUCUG	-0.75
UCGGCUG	0.043
CAGUCUC	-0.785
GGGCUCC	0.586
UUCGAGC	-0.574
CUGCAGU	-0.376
GCAGGAU	1.41
GAGUGAU	0.729
ACGACCA	-0.552
UGCCGCU	-0.633
ACGACAC	-0.496

Sequence	RNAcompete 7-mer binding Z-score
AUCAAGG	0.654
AGAGGGG	2.11
UCUGCCA	-0.857
GUUGCAU	-0.145
UACGACC	-0.733
AGGAGUU	1.51
GGCAUCU	-0.188
GUACAGG	2.33
GGCACCG	0.313
GUAACCG	0.111
GAGCGGC	1.44
AAGUCUG	-0.47
UAGCGCA	-0.487
GAGUCUC	-0.376
GCUCACC	-0.636
CUAGUGC	-0.308
CGGCCGG	-0.0609
AUUGAGC	-0.0252
AAGCCGG	0.0918
AGCCUUG	-0.815
AGAUGGA	2.97
UUCCCAU	-0.792
GUCAUUC	-0.759
UAGCGUG	0.329
GAUCGUA	-0.363

Sequence	RNAcompete 7-mer binding Z-score
CAAUUGC	-0.717
CCUCGCA	-0.5
GUUUAGC	-0.405
AAUCGCU	-0.759
UACUCAU	-0.847
UCGGGCA	0.491
UAGAUAA	-0.0609
UUUACUG	-0.6
GCACCGC	-0.139
UGUUUCG	-0.116
GAGCCGC	-0.467
GUCGUCA	-0.0122
GCAACCC	-0.613
CUGCAAG	-0.493
GGUAAAA	1.78
CCUCGAA	-0.639
GUAGGCU	0.599
GCCGGUA	-0.0577
GUUCCCC	-0.256
AGUCUCG	-0.428
UAAUAAC	-0.61
CUCACGA	-0.535
CGCUUGC	-0.539
UUGUGAA	-0.00246
AACCUCU	-0.776

Sequence	RNAcompete 7-mer binding Z-score
CUCCAAA	-0.86
UUCUAGG	0.0235
GGUCCAC	-0.106
GAAUCGA	-0.129
UAGAAAG	1.17
GGCUCCC	0.183
GCCCCUU	-0.685
CGCAUCA	-0.672
GUUUGUA	-0.116
ACUUCCU	-0.932
GCCGCUG	-0.116
AAAUCGU	-0.613
CAUUUUA	-0.886
CUAGUGG	0.703
CCACGUG	-0.22
GGAUUCG	0.417
CUCACCG	-0.48
CUGGGCA	0.748
CCCGGAG	0.0105
ACUGUUU	-0.824
UUUCUGG	-0.214
AAAAGGG	3.8
GUGGGAA	3.62
UAUCGCU	-0.587
UCCAAAA	-0.876

Sequence	RNAcompete 7-mer binding Z-score
UUUCCUG	-0.727
UUUCAGA	-0.73
AUAUUAA	-0.386
UCCGUUU	-0.805
ACUCGAC	-0.652
AUGUAAG	0.397
UUGUUGC	-0.714
GACCGGU	-0.0967
UUGCGAG	0.0983
CUAGAAU	-0.454
CUUUUUG	-0.821
CAUGCUA	-0.574
GAGAGUA	0.586
CCCAGUC	-0.604
UAGUGUA	0.462
AUCCAUU	-0.841
CUAAUCC	-0.746
UCGCCCC	-0.461
UGCGACU	-0.178
GAUCCUC	-0.883
GGCUUUA	-0.418
UUUUCAG	-0.561
GCCCACU	-0.587
AAGACGG	1.56
CUAAUUG	-0.617

Sequence	RNAcompete 7-mer binding Z-score
GCAGUCG	0.446
GGAAAAG	3.24
AGUCGAG	0.241
GAGCCUA	-0.639
CUGACCC	-0.591
GACGCCC	-0.516
AUGAGAG	0.972
UCUGAGC	-0.61
CCUUAAA	-0.776
AGGUAAA	1.82
GCCACGU	-0.477
GCUGGUA	0.959
UCACUAC	-0.587
GGAGCGU	1.78
GACCCGU	-0.714
GGCGCGC	0.612
CGUGGCA	0.423
GCAUCAC	-0.48
CCCUAUU	-0.766
CUGUCUC	-0.681
CAUUGUA	-0.659
CGUUGGC	0.15
CAGGAGG	2.26
AUUACGG	0.449
GCGCGAC	-0.318

Sequence	RNAcompete 7-mer binding Z-score
UCGGCGU	0.000789
CAUGAAA	-0.344
GCCUGCA	-0.409
ACUCUCA	-0.733
UUUCGCC	-0.85
AAUGGUU	2.44
GACCUAC	-0.776
UCAGAAG	0.00404
UCUCCAG	-0.552
AUGCCGU	-0.688
CAAUUUU	-0.971
AGCGAGG	2.98
UGGCCCG	-0.158
AUGAGAC	-0.126
GUCUAUU	-0.681
ACAACCA	-0.464
GUUUGAA	-0.246
UAAGUAG	0.69
GGGAGAU	2.7
CUUUGGC	-0.867
CGCUGCG	-0.116
AAGUCCG	-0.571
UACCUAA	-0.698
CGUGAUC	-0.704
UAUUCAG	-0.464

Sequence	RNAcompete 7-mer binding Z-score
CGCCAAG	-0.448
UUGCCGG	-0.334
CUGGCAG	0.0105
CCUUGCG	-0.513
UACUGGU	0.183
CGGCGGG	2.07
CAGGCGA	0.742
CCCUACU	-0.746
UCUGACG	-0.535
GGGACCU	0.641
GCAACCG	-0.529
CGAUUCC	-0.889
GGUCAGA	0.651
UCCGCGG	-0.0512
CCUCAAA	-0.824
CGGAUCA	0.267
UCGAAGA	-0.171
